No constants are given. Whether binding was seen depends on the method and setting. Binding seen in cells or lysates may run through a third protein. Some results given as binding are weak or reduced against the parent protein; the word gives no strength.
What was measured:
GST-CDK4 (human) = GST-CDK4 (human) (UniProt P11802); assay: pull-down; GST-affinity pull-down from lysates of transfected HEK293T cells; 1% NP-40 buffer, glutathione-conjugated beads 2 h at 4 °C, three washes, western blot; in Figure 5i the cells were treated with palbociclib
CDK4 (human) = CDK4 (human) (UniProt P11802); assay: FRET or BRET; TR-FRET high-throughput screen, 384-well; GST- and Venus-Flag-fusions co-transfected in H1299 cells, whole cell lysate, anti-GST-terbium antibody, 4 °C; both fusion orientations, triplicates, three rounds; positives by FOC, P and q values against GST-only and Venus-only controls
TSC1 (human) = target: T1, TSC1 (human) (UniProt Q92574); assay: as above
T1 sequence: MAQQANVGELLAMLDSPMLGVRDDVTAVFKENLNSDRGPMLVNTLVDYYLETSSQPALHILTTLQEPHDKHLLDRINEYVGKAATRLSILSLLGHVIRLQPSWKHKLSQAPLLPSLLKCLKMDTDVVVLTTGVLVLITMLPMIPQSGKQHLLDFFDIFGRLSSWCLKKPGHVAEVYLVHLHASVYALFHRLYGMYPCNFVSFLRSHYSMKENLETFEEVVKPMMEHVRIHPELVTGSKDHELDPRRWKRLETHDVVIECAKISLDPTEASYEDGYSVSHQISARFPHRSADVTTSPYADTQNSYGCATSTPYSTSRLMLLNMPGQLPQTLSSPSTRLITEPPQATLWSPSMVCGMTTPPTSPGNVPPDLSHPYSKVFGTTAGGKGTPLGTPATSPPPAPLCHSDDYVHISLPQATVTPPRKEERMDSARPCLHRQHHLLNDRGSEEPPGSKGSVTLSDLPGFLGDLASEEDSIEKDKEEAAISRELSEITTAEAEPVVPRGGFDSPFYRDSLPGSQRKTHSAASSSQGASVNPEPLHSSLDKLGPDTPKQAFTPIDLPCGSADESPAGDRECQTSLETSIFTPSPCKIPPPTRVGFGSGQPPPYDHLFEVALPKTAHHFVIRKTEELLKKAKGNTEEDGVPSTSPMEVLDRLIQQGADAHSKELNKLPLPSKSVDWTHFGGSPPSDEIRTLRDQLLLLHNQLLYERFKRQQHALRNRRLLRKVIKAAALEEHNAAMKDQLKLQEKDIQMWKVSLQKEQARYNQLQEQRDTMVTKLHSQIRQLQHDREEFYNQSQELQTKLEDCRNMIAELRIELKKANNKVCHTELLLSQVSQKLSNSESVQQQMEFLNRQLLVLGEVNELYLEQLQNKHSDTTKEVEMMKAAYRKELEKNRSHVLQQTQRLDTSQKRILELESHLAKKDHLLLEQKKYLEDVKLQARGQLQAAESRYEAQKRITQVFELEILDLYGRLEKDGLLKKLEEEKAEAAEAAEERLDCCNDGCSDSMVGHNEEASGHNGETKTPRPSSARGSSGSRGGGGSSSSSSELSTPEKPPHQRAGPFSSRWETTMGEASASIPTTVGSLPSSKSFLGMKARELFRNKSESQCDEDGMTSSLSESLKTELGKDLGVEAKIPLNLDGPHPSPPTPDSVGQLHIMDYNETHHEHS

Amino acid sequences for entries named in this document (tags omitted). Residues count along the entry.
UniProt P11802: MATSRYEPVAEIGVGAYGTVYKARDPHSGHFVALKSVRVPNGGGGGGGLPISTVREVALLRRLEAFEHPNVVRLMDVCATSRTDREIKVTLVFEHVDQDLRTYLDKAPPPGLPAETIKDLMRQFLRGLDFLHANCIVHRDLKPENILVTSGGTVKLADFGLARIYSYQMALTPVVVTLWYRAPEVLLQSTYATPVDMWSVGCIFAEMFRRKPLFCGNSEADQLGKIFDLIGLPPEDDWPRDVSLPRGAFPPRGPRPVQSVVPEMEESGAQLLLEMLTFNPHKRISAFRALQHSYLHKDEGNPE
UniProt P01106: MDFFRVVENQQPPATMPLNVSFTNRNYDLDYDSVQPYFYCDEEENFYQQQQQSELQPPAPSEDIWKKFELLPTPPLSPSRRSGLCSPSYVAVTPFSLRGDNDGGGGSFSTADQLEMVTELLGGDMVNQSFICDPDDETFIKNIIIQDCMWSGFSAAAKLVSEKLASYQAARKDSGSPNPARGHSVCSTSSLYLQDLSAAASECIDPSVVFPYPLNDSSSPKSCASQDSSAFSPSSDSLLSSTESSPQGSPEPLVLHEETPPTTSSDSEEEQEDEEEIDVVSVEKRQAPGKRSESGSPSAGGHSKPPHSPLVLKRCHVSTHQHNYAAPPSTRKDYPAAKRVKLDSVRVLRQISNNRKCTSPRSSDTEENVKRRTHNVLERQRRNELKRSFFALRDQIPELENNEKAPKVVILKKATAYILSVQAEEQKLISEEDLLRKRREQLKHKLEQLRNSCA
UniProt P31749: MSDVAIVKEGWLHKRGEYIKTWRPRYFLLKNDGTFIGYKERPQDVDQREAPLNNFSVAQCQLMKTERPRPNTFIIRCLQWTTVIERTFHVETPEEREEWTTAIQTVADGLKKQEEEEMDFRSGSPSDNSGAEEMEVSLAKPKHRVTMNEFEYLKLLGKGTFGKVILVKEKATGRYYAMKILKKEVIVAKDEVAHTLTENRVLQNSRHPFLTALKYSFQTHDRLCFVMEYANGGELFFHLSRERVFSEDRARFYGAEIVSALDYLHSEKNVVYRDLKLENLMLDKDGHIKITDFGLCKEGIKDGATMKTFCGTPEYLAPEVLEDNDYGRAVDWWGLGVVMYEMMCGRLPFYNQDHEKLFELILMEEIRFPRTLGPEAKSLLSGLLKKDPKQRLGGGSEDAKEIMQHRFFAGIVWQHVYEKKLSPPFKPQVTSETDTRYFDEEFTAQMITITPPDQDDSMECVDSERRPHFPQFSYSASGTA
UniProt Q00534: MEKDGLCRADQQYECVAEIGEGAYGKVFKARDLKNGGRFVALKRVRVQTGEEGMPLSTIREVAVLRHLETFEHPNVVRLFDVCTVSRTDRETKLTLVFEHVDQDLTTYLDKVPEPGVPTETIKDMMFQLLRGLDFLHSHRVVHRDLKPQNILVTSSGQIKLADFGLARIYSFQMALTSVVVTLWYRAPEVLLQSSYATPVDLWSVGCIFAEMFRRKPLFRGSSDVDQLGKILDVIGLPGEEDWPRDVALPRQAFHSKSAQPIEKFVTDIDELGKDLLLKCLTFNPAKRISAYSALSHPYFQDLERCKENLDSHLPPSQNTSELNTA
UniProt P42772: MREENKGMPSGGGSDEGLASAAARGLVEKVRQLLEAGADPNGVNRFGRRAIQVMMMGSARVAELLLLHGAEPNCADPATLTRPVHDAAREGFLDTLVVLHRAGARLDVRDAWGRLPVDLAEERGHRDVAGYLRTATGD
UniProt Q12778: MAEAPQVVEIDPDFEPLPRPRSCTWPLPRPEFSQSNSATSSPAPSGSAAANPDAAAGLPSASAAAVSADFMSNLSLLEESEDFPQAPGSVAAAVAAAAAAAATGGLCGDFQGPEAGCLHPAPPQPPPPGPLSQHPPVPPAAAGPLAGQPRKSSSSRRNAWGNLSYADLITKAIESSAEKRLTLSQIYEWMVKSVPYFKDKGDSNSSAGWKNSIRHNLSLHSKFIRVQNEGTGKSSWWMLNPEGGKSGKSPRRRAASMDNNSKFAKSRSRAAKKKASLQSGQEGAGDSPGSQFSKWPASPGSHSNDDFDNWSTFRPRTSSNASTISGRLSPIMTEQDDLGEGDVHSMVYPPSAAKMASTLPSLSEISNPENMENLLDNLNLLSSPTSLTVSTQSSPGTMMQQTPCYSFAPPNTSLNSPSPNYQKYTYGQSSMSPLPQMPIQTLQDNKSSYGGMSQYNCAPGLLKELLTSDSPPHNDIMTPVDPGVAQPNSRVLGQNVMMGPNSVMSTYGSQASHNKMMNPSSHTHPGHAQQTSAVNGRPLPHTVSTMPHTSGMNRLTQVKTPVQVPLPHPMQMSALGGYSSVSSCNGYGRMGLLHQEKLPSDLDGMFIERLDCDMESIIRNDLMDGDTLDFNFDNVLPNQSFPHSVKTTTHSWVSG
UniProt Q92830: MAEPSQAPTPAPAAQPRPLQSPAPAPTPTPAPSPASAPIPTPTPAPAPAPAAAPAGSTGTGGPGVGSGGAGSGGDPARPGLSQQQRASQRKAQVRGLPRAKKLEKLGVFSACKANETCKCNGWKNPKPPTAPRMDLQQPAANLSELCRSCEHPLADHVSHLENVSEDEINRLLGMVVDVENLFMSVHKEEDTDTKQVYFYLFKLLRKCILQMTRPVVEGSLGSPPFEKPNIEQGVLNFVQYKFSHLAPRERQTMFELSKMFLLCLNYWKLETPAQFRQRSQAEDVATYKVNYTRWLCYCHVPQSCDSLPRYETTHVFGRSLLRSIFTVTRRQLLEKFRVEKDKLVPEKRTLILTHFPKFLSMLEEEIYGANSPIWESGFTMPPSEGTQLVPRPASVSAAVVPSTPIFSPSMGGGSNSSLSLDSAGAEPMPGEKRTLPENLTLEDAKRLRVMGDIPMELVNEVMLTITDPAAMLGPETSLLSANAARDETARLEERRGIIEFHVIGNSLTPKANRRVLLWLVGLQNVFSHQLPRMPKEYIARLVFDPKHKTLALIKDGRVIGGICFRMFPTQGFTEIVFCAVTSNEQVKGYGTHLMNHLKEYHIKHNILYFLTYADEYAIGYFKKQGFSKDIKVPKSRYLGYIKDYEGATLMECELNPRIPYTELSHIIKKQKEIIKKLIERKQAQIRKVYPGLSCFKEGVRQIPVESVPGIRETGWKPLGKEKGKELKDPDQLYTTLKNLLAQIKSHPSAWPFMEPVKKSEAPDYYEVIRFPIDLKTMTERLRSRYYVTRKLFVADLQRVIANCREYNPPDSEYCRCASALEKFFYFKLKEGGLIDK
UniProt P35240: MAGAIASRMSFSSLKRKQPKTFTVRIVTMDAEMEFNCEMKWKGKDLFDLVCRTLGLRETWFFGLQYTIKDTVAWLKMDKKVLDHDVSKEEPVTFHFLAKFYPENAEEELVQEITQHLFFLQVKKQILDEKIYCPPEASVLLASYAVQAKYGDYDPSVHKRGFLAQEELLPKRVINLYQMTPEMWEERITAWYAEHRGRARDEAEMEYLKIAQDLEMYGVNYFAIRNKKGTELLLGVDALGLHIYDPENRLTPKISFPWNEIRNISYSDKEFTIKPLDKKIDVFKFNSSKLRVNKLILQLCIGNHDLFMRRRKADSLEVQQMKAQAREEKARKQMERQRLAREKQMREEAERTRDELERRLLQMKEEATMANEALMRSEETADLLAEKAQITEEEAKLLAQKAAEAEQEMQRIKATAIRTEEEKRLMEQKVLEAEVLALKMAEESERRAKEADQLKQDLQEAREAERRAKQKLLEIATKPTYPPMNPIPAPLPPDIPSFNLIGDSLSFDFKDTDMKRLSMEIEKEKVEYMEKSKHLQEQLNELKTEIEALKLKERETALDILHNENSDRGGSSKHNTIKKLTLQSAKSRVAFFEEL
UniProt Q9BZ95, residues 1-347: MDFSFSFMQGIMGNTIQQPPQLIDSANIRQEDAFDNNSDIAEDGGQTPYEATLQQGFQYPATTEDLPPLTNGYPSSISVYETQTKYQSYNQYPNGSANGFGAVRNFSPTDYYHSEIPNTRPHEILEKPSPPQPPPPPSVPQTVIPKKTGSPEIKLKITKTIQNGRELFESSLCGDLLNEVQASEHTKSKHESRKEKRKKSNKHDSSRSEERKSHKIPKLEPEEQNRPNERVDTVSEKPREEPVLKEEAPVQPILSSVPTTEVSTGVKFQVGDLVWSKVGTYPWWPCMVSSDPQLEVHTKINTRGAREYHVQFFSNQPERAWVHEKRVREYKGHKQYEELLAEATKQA
UniProt Q15796: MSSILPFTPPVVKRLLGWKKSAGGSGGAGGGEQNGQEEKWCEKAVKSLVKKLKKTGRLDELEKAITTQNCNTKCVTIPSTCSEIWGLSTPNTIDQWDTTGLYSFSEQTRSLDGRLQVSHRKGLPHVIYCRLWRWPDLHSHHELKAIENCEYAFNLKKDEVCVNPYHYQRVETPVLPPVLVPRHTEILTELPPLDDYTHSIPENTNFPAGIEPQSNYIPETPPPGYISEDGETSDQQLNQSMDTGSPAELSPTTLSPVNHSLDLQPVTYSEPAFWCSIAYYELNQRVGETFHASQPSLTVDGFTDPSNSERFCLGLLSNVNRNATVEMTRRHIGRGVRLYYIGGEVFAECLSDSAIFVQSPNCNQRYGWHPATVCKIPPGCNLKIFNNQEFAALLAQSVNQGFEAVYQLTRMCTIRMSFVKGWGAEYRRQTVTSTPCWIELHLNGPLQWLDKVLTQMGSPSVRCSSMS
UniProt P51532: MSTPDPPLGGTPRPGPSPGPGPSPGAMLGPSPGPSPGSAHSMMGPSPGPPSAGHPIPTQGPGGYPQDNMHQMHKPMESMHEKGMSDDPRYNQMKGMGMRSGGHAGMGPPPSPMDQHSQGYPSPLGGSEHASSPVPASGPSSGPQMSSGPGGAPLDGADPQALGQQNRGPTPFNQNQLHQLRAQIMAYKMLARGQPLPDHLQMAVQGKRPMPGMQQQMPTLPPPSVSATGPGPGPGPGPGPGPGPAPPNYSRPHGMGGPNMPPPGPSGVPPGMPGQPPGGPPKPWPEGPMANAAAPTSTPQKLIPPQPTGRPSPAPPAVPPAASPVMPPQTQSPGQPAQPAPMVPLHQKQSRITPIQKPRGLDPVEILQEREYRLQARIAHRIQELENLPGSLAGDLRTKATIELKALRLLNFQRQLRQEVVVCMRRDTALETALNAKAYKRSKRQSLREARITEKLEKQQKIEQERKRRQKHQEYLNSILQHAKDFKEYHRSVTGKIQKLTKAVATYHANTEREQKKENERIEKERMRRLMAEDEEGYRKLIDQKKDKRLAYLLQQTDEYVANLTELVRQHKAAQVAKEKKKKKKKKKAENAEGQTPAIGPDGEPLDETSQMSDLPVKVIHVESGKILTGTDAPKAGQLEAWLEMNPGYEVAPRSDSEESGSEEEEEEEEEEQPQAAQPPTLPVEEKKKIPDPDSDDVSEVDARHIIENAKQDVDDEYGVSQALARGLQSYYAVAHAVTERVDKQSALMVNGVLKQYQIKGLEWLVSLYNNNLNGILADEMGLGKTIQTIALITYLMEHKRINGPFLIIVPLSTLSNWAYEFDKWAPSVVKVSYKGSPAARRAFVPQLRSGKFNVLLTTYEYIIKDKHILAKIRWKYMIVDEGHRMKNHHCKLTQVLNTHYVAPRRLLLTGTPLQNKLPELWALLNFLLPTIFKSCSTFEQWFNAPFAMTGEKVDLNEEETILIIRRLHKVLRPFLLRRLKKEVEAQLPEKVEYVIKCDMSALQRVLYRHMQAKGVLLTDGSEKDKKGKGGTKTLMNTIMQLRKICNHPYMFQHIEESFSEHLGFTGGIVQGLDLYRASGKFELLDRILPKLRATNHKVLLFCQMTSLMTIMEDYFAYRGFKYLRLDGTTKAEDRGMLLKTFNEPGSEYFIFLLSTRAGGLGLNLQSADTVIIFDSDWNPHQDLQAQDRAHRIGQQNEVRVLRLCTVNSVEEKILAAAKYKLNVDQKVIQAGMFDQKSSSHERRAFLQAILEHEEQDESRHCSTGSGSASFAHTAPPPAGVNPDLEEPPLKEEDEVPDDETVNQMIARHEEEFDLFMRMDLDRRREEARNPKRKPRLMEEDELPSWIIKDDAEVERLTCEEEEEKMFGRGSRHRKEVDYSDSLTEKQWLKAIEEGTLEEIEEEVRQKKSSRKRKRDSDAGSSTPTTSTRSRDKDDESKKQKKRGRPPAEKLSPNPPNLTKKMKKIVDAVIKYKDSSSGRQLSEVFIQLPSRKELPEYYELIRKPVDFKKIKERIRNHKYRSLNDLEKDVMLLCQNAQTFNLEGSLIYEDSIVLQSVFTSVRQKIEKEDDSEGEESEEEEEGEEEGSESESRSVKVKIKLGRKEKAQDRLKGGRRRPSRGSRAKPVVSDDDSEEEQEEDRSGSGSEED
UniProt P63104: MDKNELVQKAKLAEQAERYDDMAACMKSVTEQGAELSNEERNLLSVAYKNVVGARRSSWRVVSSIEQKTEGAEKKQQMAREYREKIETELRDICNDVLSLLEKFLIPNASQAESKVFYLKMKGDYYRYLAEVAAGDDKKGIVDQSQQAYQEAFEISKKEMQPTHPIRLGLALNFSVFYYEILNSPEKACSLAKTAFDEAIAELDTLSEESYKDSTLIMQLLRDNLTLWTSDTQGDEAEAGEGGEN

STK11 (human) = target: T2, STK11 (human) (UniProt Q15831); assay: as above
T2 sequence: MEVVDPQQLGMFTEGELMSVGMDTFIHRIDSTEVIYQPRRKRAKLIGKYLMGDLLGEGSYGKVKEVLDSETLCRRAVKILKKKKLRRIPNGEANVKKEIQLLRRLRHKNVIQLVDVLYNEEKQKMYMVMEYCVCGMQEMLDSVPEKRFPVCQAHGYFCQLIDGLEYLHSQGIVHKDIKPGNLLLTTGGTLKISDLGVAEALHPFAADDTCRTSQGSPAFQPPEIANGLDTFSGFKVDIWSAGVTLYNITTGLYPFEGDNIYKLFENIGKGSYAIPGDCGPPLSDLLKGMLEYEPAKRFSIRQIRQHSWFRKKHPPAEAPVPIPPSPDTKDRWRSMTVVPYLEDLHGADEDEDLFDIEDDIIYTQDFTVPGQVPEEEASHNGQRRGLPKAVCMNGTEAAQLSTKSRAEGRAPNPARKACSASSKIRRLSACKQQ

EPHA2 (human) = EPHA2 (human) (UniProt P29317); assay: as above
MYC (human) [1] = target: MYC (human) (UniProt P01106); assay: as above
HRAS (human) = HRAS (human) (UniProt P01112); assay: as above
RASSF1 (human) = target: T3, RASSF1 (human) (UniProt Q9NS23); assay: as above
T3 sequence: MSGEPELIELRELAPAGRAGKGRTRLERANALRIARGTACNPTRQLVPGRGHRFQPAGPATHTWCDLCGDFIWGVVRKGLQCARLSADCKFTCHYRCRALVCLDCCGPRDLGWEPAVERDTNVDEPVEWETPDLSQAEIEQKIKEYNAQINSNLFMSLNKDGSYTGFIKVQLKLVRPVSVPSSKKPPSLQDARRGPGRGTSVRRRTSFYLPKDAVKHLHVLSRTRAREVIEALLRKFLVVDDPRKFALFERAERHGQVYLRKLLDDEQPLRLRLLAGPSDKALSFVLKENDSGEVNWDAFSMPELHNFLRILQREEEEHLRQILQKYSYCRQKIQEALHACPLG

MYC (human) [2] = target: MYC (human) (UniProt P01106); assay: pull-down; GST-affinity pull-down from lysates of transfected HEK293T cells; 1% NP-40 buffer, glutathione-conjugated beads 2 h at 4 °C, three washes, western blot; in Figure 5i the cells were treated with palbociclib
RB1 (human) = target: T4, RB1 (human) (UniProt P06400); assay: FRET or BRET; TR-FRET high-throughput screen, 384-well; GST- and Venus-Flag-fusions co-transfected in H1299 cells, whole cell lysate, anti-GST-terbium antibody, 4 °C; both fusion orientations, triplicates, three rounds; positives by FOC, P and q values against GST-only and Venus-only controls
T4 sequence: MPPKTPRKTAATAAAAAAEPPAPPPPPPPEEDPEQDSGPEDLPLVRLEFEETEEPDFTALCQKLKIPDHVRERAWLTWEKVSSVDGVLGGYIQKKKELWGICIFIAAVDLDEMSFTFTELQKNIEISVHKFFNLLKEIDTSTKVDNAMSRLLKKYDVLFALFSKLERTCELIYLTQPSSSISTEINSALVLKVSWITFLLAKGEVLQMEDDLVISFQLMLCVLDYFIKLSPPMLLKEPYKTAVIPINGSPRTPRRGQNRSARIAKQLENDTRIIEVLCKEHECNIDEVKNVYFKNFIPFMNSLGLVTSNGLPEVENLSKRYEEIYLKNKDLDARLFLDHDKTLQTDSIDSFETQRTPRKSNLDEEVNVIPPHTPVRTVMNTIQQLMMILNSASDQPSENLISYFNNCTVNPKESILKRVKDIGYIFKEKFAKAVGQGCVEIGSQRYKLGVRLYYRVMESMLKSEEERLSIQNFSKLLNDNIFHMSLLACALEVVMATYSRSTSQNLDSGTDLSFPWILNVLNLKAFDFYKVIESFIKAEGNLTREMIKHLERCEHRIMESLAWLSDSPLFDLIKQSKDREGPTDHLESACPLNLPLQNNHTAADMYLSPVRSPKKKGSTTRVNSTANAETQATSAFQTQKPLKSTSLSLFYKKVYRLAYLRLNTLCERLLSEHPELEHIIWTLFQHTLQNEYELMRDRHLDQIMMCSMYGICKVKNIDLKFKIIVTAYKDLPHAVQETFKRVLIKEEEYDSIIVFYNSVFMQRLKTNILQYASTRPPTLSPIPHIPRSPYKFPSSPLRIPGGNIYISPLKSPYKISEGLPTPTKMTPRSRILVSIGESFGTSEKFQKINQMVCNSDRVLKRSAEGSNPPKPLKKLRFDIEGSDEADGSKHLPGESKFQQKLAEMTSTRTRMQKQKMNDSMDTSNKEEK

## AKT1 (from UniProt P31749 1-480)
GST-CDK4 (human)
  binding: binds
CDK4 (human)
  binding: binds
TSC1 (human)
  binding: binds

## CDK6 (from UniProt Q00534 1-326)
STK11 (human)
  binding: binds

## CDKN2B (from UniProt P42772 1-138)
EPHA2 (human)
  binding: binds

## FOXO1 (from UniProt Q12778 1-655)
TSC1 (human)
  binding: no binding

## GCN5 (from UniProt Q92830 1-837)
MYC (human) [1]
  binding: binds

## MAPK14 (from UniProt Q16539 1-360)
HRAS (human)
  binding: no binding

## NF2 (from UniProt P35240 1-595)
GST-CDK4 (human)
  binding: binds
CDK4 (human)
  binding: binds
RASSF1 (human)
  binding: binds

## NSD3-s (1–347) (from UniProt Q9BZ95 1-347) (domain or fragment)
MYC (human) [2]
  binding: no binding

## PDGFRA (from UniProt P16234 24-1089)
GST-CDK4 (human)
  binding: binds
CDK4 (human)
  binding: binds

## SMAD2 (from UniProt Q15796 1-467)
MYC (human) [1]
  binding: binds
RB1 (human)
  binding: no binding

## SMARCA4 (from UniProt P51532 1-1647)
RASSF1 (human)
  binding: binds

## YWHAZ (from UniProt P63104 1-245)
TSC1 (human)
  binding: no binding

Reference: paper PMC5316855
